According to article PMC4336329 (PLoS ONE, 2015):
In all, about 310,000 compounds went through this assay and about 2,200 (0.71%) showed an effect of 50% or more. The effect is printed as a negative number. The list shows a part of the results.

What follows are compounds tested against human ether-à-go-go-related gene (hERG) potassium channel (human, UniProt Q12809) (assay: primary screen, population patch clamp on CHO cells stably expressing hERG).
Sequence of human ether-à-go-go-related gene (hERG) potassium channel (Q12809 whole entry, looked up): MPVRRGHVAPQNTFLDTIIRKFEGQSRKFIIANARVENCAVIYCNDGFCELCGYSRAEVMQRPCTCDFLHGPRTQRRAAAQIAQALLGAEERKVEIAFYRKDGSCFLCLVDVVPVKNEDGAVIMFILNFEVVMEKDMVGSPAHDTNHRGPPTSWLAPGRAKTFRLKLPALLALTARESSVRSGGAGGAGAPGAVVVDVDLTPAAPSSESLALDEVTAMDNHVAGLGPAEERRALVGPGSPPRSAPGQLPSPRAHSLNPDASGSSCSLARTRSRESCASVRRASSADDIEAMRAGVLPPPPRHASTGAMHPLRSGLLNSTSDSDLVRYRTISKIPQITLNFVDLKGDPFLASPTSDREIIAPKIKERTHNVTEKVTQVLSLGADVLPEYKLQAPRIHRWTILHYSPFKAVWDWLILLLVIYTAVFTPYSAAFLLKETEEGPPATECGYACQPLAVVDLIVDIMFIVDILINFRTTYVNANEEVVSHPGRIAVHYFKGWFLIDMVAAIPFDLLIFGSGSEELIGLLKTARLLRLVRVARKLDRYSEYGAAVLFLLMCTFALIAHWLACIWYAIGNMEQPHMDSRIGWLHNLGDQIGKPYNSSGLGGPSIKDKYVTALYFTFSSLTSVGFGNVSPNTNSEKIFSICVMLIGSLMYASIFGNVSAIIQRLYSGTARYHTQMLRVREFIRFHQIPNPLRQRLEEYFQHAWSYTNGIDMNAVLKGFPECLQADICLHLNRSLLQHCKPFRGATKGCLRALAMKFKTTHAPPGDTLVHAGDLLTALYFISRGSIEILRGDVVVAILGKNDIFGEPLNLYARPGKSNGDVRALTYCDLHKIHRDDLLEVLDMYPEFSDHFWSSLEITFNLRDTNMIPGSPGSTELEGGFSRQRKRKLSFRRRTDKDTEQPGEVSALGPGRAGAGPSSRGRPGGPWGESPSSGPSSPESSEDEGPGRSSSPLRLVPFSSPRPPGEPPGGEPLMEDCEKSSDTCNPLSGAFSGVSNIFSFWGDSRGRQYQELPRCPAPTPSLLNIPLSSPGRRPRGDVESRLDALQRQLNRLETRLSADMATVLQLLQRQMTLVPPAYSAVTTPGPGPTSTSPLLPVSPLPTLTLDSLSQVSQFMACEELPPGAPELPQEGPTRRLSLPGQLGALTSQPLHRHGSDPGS

In order of rising “hERG current change (%, negative = inhibition) at 1uM” value:
1. CCOc1ccc(NC(=O)NC2CCOC(C)(C)C2)cc1 (stereo not drawn)  -17.1%
2. Cc1cccc(CNc2ccc(C(CC(N)=O)NC(=O)c3cccc(Br)c3)cc2[N+](=O)[O-])c1 (stereo not drawn)  -14.5%
3. Cc1ccc2cccc(S(=O)(=O)NC3CCS(=O)(=O)C3)c2n1 (stereo not drawn)  -11.2%
4. O=C(O)C(=O)O.O=C1CCCN1CN1CCCCC1  -4.92%
5. CCCS(=O)(=O)c1nnnn1-c1cccc(OC)c1  -3.62%
6. COc1ccccc1C(=O)Nc1nc2ccc(S(C)(=O)=O)cc2s1  -1.41%
7. OC(Cn1ccnc1)c1ccc(Cl)cc1Cl (stereo not drawn)  0.389%
8. C=CCOc1ccc(/C(O)=C2/C(=O)C(=O)N(CCN3CCOCC3)C2c2ccc(C)cc2)cc1 (stereo not drawn)  0.547%
9. Cc1ncc(CN2CCC(C(=O)Nc3cccc(-c4cscn4)c3)CC2)cn1  0.714%
10. O=C(Cc1ccccc1)Nc1ccc2c(c1)CCC2  1.78%
11. CC(C)CCNC(=O)CN(Cc1ccco1)C(=O)CCC(=O)Nc1nccs1  3.24%
12. COC(=O)[C@@]1(C#N)[C@@H]2C=CC(C(C)=O)=CN2[C@@H](C(N)=O)[C@@H]1c1ccc(F)cc1  3.41%
13. O=C(CNC(=O)c1ccccc1Cl)N/N=C/c1ccc([N+](=O)[O-])s1  5.66%
14. O=C(c1ccc(F)cc1F)N1CCN(S(=O)(=O)c2ccc3c(c2)OCCO3)CC1  7.48%
15. COc1cccc(SCc2noc(C(=O)NCCC(C)C)c2C(=O)NCCC(C)C)c1  9.89%
16. Cc1cccc(N2CCN(C(=O)Cc3c(C(=O)O)[nH]c4ccc(Cl)cc34)CC2)c1C  10.7%
17. COc1cc(CN(C(=O)c2ccco2)C2CCS(=O)(=O)C2)cc(OC)c1OC (stereo not drawn)  11.1%
18. CC1CCCN(C(=O)Cn2nnc(-c3ccc([N+](=O)[O-])cc3)n2)C1 (stereo not drawn)  11.5%
19. Cc1cc(=O)oc2cc(OCC(=O)NCCN3CCOCC3)c(Cl)cc12  13.6%
20. O=[N+]([O-])c1cccc(-c2noc3c2-c2nc(Cc4cccc5ccccc45)sc2CC3)c1  14.2%
21. Fc1ccc(NC(=S)N2CCCC(c3ccccc3)=N2)cc1  16.2%
22. CC/C(=N\NC(=O)C1CC1)c1cccc(Cl)c1  16.9%
23. O=C(N/N=C/c1sc(N2CCCCC2)nc1-c1cccs1)c1cccnc1  19.6%
24. Cc1cccc(OCc2ccc(C(=O)N3CCOCC3)o2)c1  26.4%
